Values joined by “and” are separate entries in the source; they are usually repeats but may differ in a detail not shown here. Equal values may be shown once. This list was built around the results that the source calls inconclusive (neither active nor inactive); the mix of calls is not that of the screen. For some assays here: A potency beside an inconclusive call is a rough fit, not a confirmed value. Active and inactive are the calls of the source. Unless noted, calls come from the whole dose curve; as a rule, active = well fitted curve in the direction sought with a large enough effect in the repeat runs; inconclusive = weak or mixed curves; inactive = no such curve, though single readings can be large; an effect the other way counts as inactive or inconclusive.
Experiments:
[1] = qHTS assay to identify small molecule agonists of H2AX (AID 1224845; active = well fitted activation curve with a large enough effect in the signal ratio in the repeat runs, not every such curve was filed as active; inconclusive = weak or mixed curves; the % refers to the signal ratio; note: potency is the fitted concentration of half-maximal effect; for activation (H2AX phosphorylation): % is set by controls: 0 for no effect and ±100 for the full control effect); conditions: CHO-K1 phospho-H2AX Ser139 HTRF, 3 h; activation (H2AX phosphorylation): at 154 µM (top of the series) unless noted
Outline: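 Wild-type CHO-K1 cells plated overnight, then exposed 3 hr at 37C to compounds at 15 concentrations (0.76% DMSO). Lysed, then HTRF anti-pH2AX(S139)-cryptate/anti-H2AX-d2 detection after 24 hr at room temperature; emissions 665 and 620 nm.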

[2] = qHTS RealTime-Glo MT Cell Viability Assay in HEK293 cells - 32 hour (AID 1224868); conditions: RealTime-Glo luminescence; series mostly up to 76.8 µM; note: potency is the fitted concentration of half-maximal effect; nearly all actives have a fitted effect of over 50% in size
Outline: (§1)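 Assay medium contained NanoLuc luciferase plus cell-permeant prosubstrate, added with HEK293 cells at 600 cells/well. After 5 h at 37 C/5% CO2 compounds were added; plates stayed at 37 C for 40 h with serial luminescence reads.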

[3] = qHTS RealTime-Glo MT Cell Viability Assay in HEK293 cells - 16 hour (AID 1224872); conditions: RealTime-Glo luminescence; series mostly up to 76.8 µM; note: potency is the fitted concentration of half-maximal effect; nearly all actives have a fitted effect of over 50% in size
Outline: as §1

[4] = qHTS RealTime-Glo MT Cell Viability Assay in HEK293 cells - 40 hour (AID 1224874); conditions: RealTime-Glo luminescence; max response: hits give low values; note: potency is the fitted concentration of half-maximal effect; nearly all actives have a fitted effect of over 50% in size
Outline: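 Measured as luminescence from the same continuously cultured HEK293 wells at successive time points (0, 8, 16, 24, 32, 40 h) after compound addition. Reagent present from seeding; dosing at 5 h; incubation 37 C.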

[5] = qHTS RealTime-Glo MT Cell Viability Assay in HepG2 cells - 24 hour (AID 1224867); conditions: RealTime-Glo luminescence; series mostly up to 76.8 µM; note: potency is the fitted concentration of half-maximal effect; nearly all actives have a fitted effect of over 50% in size
Outline: (§2)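 qHTS, HepG2, 600 cells/well, RealTime-Glo (NanoLuc + prosubstrate) added with cells; 5 h preincubation; DMSO compound addition; 37 C; luminescence at 0/8/16/24/32/40 h.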

[6] = qHTS RealTime-Glo MT Cell Viability Assay in HepG2 cells - 40 hour (AID 1224870); conditions: RealTime-Glo luminescence; series mostly up to 76.8 µM; note: nearly all actives have a fitted effect of over 50% in size; note: potency is the fitted concentration of half-maximal effect
Outline: (§3)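 HepG2 cells mixed with RealTime-Glo MT reagents (NanoLuc plus cell-permeant prosubstrate) were seeded at 600 cells/well, incubated 5 h at 37 C/5% CO2, then pinned with compounds in DMSO; nonlytic luminescence tracked viability during 40 h treatment.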

[7] = qHTS RealTime-Glo MT Cell Viability Assay in HepG2 cells - 8 hour (AID 1224873); conditions: RealTime-Glo luminescence; series mostly up to 76.8 µM; note: nearly all actives have a fitted effect of over 55% in size; note: potency is the fitted concentration of half-maximal effect
Outline: as §3

[8] = A CellTox Green Cytotoxicity Assay to monitor cytotoxicity in HepG2 cells - 40 hour (AID 1224879); conditions: CellTox Green fluorescence; series mostly up to 76.8 µM; note: potency is the fitted concentration of half-maximal effect; nearly all actives have a fitted effect of over 40% in size
Outline: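 Fluorescent DNA-binding dye, 600 HepG2 cells/well, 5 h preincubation then compound in DMSO; same plates read at 0–40 h, 37 C.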

[9] = qHTS assay to identify small molecule agonists of the estrogen related receptor (ERR) signaling pathway from Tox21 library (AID 1224849; calls by dose curve; note: % is set by controls: 0 for no effect and ±100 for the full control effect; nearly all actives have a fitted effect of over 15% in size); conditions: ERR reporter cell line, ONE-Glo luciferase, 18 h; at 92.4 µM (top of the series)
Outline: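 Reporter cells (ERR, NTP source) treated with Tox21 10K compounds 18 h, 37 C. Readout: ONE-Glo luminescence, 30 min RT.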

[10] = A CellTox Green Cytotoxicity Assay to monitor cytotoxicity in HEK293 cells - 40 hour (AID 1224871); conditions: CellTox Green fluorescence; series mostly up to 76.8 µM; note: potency is the fitted concentration of half-maximal effect; nearly all actives have a fitted effect of over 45% in size
Outline: (§4)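 Homogeneous no-lysis format: HEK293 cell suspension mixed with CellTox Green reagent, seeded, incubated 5 h at 37 C/5% CO2, then dosed by pintool with compound in DMSO.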

[11] = A CellTox Green Cytotoxicity Assay to monitor cytotoxicity in HEK293 cells - 24 hour (AID 1224875); conditions: CellTox Green fluorescence; series mostly up to 76.8 µM; note: potency is the fitted concentration of half-maximal effect; nearly all actives have a fitted effect of over 45% in size
Outline: as §4

[12] = A CellTox Green Cytotoxicity Assay to monitor cytotoxicity in HEK293 cells - 32 hour (AID 1224881); conditions: CellTox Green fluorescence; series mostly up to 76.8 µM; note: potency is the fitted concentration of half-maximal effect; nearly all actives have a fitted effect of over 40% in size
Outline: as §4

[13] = qHTS assay to identify small molecule agonists of the hypoxia (HIF-1) signaling pathway (AID 1224846; active = well fitted activation curve with a large enough effect in the signal ratio in the repeat runs, not every such curve was filed as active; inconclusive = weak or mixed curves; the % refers to the signal ratio; note: potency is the fitted concentration of half-maximal effect; for activation: % is set by controls: 0 for no effect and ±100 for the full control effect); conditions: HRE-bla ME-180 cells, beta-lactamase ratio, 17 h; activation: at 76.8 µM (top of the series) unless noted
Outline: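 In ME-180 cells bearing an HRE-bla construct, 17 h treatment with DMSO-dissolved compounds at 37C was followed by CCF4-AM loading to quantify reporter induction.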

[14] = A CellTox Green Cytotoxicity Assay to monitor cytotoxicity in HEK293 cells - 0 hour (AID 1224869); conditions: CellTox Green fluorescence; series mostly up to 76.8 µM
Outline: as §4

[15] = qHTS RealTime-Glo MT Cell Viability Assay in HepG2 cells - 32 hour (AID 1224877); conditions: RealTime-Glo luminescence; series mostly up to 76.8 µM; note: nearly all actives have a fitted effect of over 55% in size; note: potency is the fitted concentration of half-maximal effect
Outline: as §2

[16] = qHTS assay to identify small molecule agonists of H2AX - cell viability counter screen (AID 1224847; calls by dose curve; note: potency is the fitted concentration of half-maximal effect; nearly all actives have a fitted effect of over 30% in size); conditions: CHO-K1 viability, CellTiter-Glo luminescence, 3 h; series mostly up to 154 µM
Outline: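 For this counter screen, overnight-attached CHO-K1 cells received test compounds (15 concentrations, 0.76% DMSO final); 3 hr later at 37C, CellTiter-Glo reagent was added and luminescence recorded after 30 min at room temperature.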
Tags give direction and shape of the fitted curve or compound fluorescence and quenching.

S=C1NC=NC2N=CNC12 (configuration not stated)
Potency [1]: inconclusive: 113 µM | Potency [2]: active: 21.9 µM | Potency [3]: inconclusive: 34.7 µM [cytotoxic, partial curve] | Potency [4]: active: 17.4 µM

CCN(CC)CCOc1ccc(C(O)(Cc2ccc(Cl)cc2)c2ccc(C)cc2)cc1 (configuration not stated)
Potency [1]: active: 49.2 µM | Potency [5]: active: 23.9 µM | Potency [6]: active: 15.1 µM | Potency [3]: active: 21.3 µM | Potency [7]: inconclusive: 23.9 µM [falling, single point] | Potency [8]: active: 15.1 µM

C(=C\c1ccccc1)/c1ccccc1
Potency [1]: inactive | activity change, positive = activation [9]: inconclusive: 12.3% | Potency [10]: inconclusive: 61.2 µM [activator, single point] | Potency [11]: inconclusive: 61.2 µM [activator, single point] | Potency [12]: inconclusive: 61.2 µM [activator, single point]

Cc1cc(C)c(NC(=O)CN(CC(=O)O)CC(=O)O)c(C)c1Br
Potency [13]: inactive

CC(CO)CO
Potency [13]: inactive

COc1cccc(O)c1O
Potency [2]: inconclusive: 20.3 µM [rising, partial curve]

CN(C)CCOC(c1ccccc1)c1ccccc1 (tested in a mixture with another compound)
Potency [2]: inconclusive: 62.1 µM [cytotoxic, partial curve, poor fit]

Fc1ccccc1
Potency [14]: inactive

CCOc1ccc2c(c1)C(C)=CC(C)(C)N2
Potency [6]: inconclusive: 21.9 µM [falling, single point]

C#CCN(C)Cc1ccccc1
Potency [6]: inactive

CCOC(=O)c1ccc(O)c(O)c1
Potency [7]: inactive

CCCCCCCC/C=C\CCCCCCCC(=O)OC
Potency [15]: inactive

COc1cc(C(=O)NS(=O)(=O)c2ccccc2C)ccc1Cc1cn(C)c2ccc(NC(=O)OC3CCCC3)cc12
Potency [13]: inconclusive: 23.9 µM [falling, partial curve]

Oc1ccc(C(c2ccc(O)cc2)C(Cl)(Cl)Cl)cc1
Potency [13]: inconclusive: 54.7 µM [falling, partial curve, poor fit] | Potency [16]: inconclusive: 126 µM [cytotoxic, single point] and inconclusive: 127 µM [cytotoxic, single point] | Potency [5]: inconclusive: 49 µM [falling, partial curve, poor fit] | Potency [2]: inconclusive: 34.5 µM [cytotoxic, partial curve] and inconclusive: 38.9 µM [cytotoxic, partial curve] | Potency [3]: inconclusive: 38.8 µM [cytotoxic, partial curve] and inconclusive: 49 µM [cytotoxic, partial curve] | Potency [4]: inconclusive: 38.9 µM [cytotoxic, partial curve] | Potency [15]: inconclusive: 49 µM [cytotoxic, partial curve, poor fit]
